# Source: the BET-seq Pho4 binding data (Le et al. 2018)
# This is one part of the list. Values were computed here from the reads of four pooled replicates and scatter widely.
# Molecular target: T1, Pho4 (S. cerevisiae) (UniProt P07270)
# T1 sequence: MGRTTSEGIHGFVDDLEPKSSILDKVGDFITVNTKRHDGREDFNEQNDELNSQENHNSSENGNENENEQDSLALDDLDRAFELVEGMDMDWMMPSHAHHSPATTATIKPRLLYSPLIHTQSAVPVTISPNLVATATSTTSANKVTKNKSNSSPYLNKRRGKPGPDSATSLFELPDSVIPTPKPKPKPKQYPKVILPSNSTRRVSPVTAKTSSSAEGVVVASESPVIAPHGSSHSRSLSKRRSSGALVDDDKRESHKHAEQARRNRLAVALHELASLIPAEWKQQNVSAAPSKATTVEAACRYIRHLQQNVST
# Experiment: relative binding free energy (BET-seq); higher = weaker binding
# Conditions: reference: library average
row,Sequence,relative binding free energy [kcal/mol]
1,AACGGCACGTGGAGGT,0.01
2,TGTCACACGTGTGGCA,0.25
3,TTTTACACGTGGGCTT,0.02
4,TGGGTCACGTGAGGGT,0.27
5,GTACGCACGTGTGGGT,0.09
6,TTTTGCACGTGATCGA,0.02
7,GGGCCCACGTGTTATG,0.08
8,AAGTGCACGTGAGGGG,0.23
9,ATAAACACGTGTGGTT,0.07
10,AGCATCACGTGGGTGT,-0.15
11,TGTTCCACGTGATGGC,0.23
12,GTGTACACGTGTTGGC,0.05
13,ATAAGCACGTGTGGAT,-0.02
14,GTTGGCACGTGGCTGC,-0.06
15,GTTATCACGTGTTTAA,0.19
16,TTTCTCACGTGAGTAT,0.38
17,TTGGTCACGTGTAATT,0.3
18,AGAAACACGTGGGGCT,0.08
19,TAGAGCACGTGTTGAG,0
20,TGAGCCACGTGTTGGA,-0.07
21,AGTTCCACGTGCGGGG,-0.1
22,TGGAACACGTGGTATA,-0.13
23,TGTAACACGTGTAGTC,0.03
24,GTGGGCACGTGCAGAG,-0.16
25,CTGTACACGTGTTTTT,0.15
26,TTTGACACGTGTCTAT,0.06

row,Sequence,relative binding free energy [kcal/mol]
1,TGAAGCACGTGGGTCT,-0.31
2,GGGATCACGTGGACGA,0.28
3,GATTGCACGTGGGGAC,0.09
4,GTTGACACGTGGTCTG,-0.06
5,TTTTACACGTGTATTT,0.21
6,AATGTCACGTGTAGTA,0.14
7,TTAATCACGTGGTCGG,0.02
8,GTTGACACGTGTTCGT,0
9,GGGGACACGTGAAAGG,0.32
10,GAGGGCACGTGACGGT,0.1
11,ATGAGCACGTGTGGGT,-0.07
12,TAGGGCACGTGGACGA,-0.14
13,AACTACACGTGGGTAG,0.07
14,TGGGTCACGTGCCTTG,0.01
15,GTGCGCACGTGGGTGA,-0.17
16,TTTAGCACGTGAGAGT,0.17
17,ATGGTCACGTGTGGCT,0.15
18,TCGTGCACGTGATAGG,0.1
19,TGGGCCACGTGAAGTA,0.26
20,TCAAGCACGTGGGGAG,-0.23
21,TCGTACACGTGGGTTT,-0.04
22,TTATTCACGTGCTTAA,0.15
23,TCTGTCACGTGGGTTC,-0.01
24,TCGGTCACGTGGGAGT,0.03
25,AAGTGCACGTGTTTCG,0.06
26,GTGGTCACGTGTATGG,0.24

row,Sequence,relative binding free energy [kcal/mol]
1,GAGAACACGTGGTGTG,-0.08
2,GGTTTCACGTGGCCCT,0.35
3,TATATCACGTGATGGG,0.26
4,CGGTGCACGTGAAGGC,0.14
5,TGAATCACGTGGGCTA,0.06
6,TTTTGCACGTGATACA,0.08
7,CGAGGCACGTGGAGGC,-0.06
8,TAGTACACGTGGCTGG,0.07
9,TCATTCACGTGTTTTG,0.24
10,CAGGGCACGTGGATTG,0.03
11,TTGTTCACGTGACTCG,0.38
12,TGTAACACGTGGGGGC,-0.12
13,AGTCACACGTGGGTCG,0.11
14,AGTTTCACGTGGTCGG,0.23
15,GATTACACGTGTTGAG,0.18
16,CGGGGCACGTGTGGTA,0.09
17,GTCTTCACGTGGCGTT,0.23
18,GATGTCACGTGCGATT,0.16
19,GAGGACACGTGGGTCA,0.09
20,TTGATCACGTGAGACG,0.28
21,AATGACACGTGGAGTG,0.06
22,GATTACACGTGGATGG,0.18
23,AACGGCACGTGGGTTG,-0.16
24,GGGGCCACGTGAATGT,0.29
25,TAGTACACGTGTGTGC,-0.03
26,AAGAGCACGTGGGGCG,-0.23

row,Sequence,relative binding free energy [kcal/mol]
1,TTTCCCACGTGGGAGT,-0.1
2,GTTTGCACGTGGTTCC,0.22
3,AGTTTCACGTGGGATT,0.14
4,GTCTGCACGTGTGGTT,0.09
5,GAGCTCACGTGATGGT,0.33
6,GGTATCACGTGTATGA,0.23
7,TTGAACACGTGTAGGG,0.1
8,GGTTACACGTGGGGCC,0.06
9,TTTATCACGTGTGAGT,0.32
10,TTTAGCACGTGCGGTT,0.01
11,TTGAGCACGTGTACAT,-0.01
12,GGATTCACGTGTGTGG,0.27
13,CGTTTCACGTGTATAG,0.25
14,ATGATCACGTGGGGTA,0.05
15,TTAGGCACGTGAAGAG,0
16,ATATTCACGTGTTTCG,0.19
17,TGGGGCACGTGGCTCA,-0.21
18,TGAAACACGTGGGTAT,-0.2
19,AATCACACGTGGTTTT,0.17
20,TGTAACACGTGAGAAG,0.14
21,TATCGCACGTGTGCGG,-0.12
22,GCATTCACGTGGGGTT,0.16
23,GTCGACACGTGATGGT,0.35
24,AGTATCACGTGTGTGT,0.23
25,GGATGCACGTGTCATG,0.12
26,CTGGGCACGTGGACGT,-0.07

row,Sequence,relative binding free energy [kcal/mol]
1,TTATCCACGTGGTATG,-0.06
2,TTATGCACGTGTTATA,-0.19
3,AAGCGCACGTGGGCGG,-0.33
4,TGTTCCACGTGGTATA,-0.03
5,ATTTTCACGTGTTTTC,0.31
6,GGAAGCACGTGAAGTG,0.14
7,GTAGTCACGTGGGTCC,-0.02
8,TCAGCCACGTGGGTGG,-0.23
9,GGTATCACGTGCGATT,0.23
10,TGCCTCACGTGATGGG,0.25
11,GCTGTCACGTGCGGTG,0.06
12,TGTATCACGTGCTGCG,0.12
13,ATGTACACGTGCAGGG,0
14,GGTCCCACGTGTTTGT,0.02
15,TTGCTCACGTGGATAT,0.1
16,GTATTCACGTGTGTAT,0.34
17,GGGTGCACGTGAAGTC,0.4
18,GGGCGCACGTGTTATT,-0.05
19,ATAAGCACGTGGGGAG,-0.19
20,GATATCACGTGTGGCG,0.17
21,TAATTCACGTGAGTGT,0.43
22,AGGCGCACGTGTTGAA,0.02
23,CGGTTCACGTGAGGCG,0.44
24,GAGAACACGTGGTATG,0.16
25,TGGGCCACGTGGTGGT,-0.11
26,GGAGACACGTGGGTCT,-0.01

row,Sequence,relative binding free energy [kcal/mol]
1,AATAGCACGTGTAGGA,0.03
2,CTATGCACGTGCGGTG,-0.17
3,ATGGTCACGTGATAAT,0.28
4,AGTCTCACGTGTGTAG,0.28
5,TGGATCACGTGGCGGC,0.01
6,AGCGGCACGTGGTGAT,-0.18
7,ATCTTCACGTGGGCTG,0.07
8,GCGTCCACGTGGTGGG,-0.08
9,TGGGGCACGTGGCCTA,-0.31
10,GGAAACACGTGGTTGG,-0.06
11,TTTTACACGTGCTTAG,-0.02
12,CCTGGCACGTGTTTGT,-0.24
13,CGGGGCACGTGTATTT,-0.03
14,GGCGGCACGTGTCGTT,0.01
15,GTGGCCACGTGTTTAG,0.07
16,TTGCACACGTGGGGCG,-0.02
17,GTCTCCACGTGTGTGT,0.04
18,GATATCACGTGGCGTA,0.13
19,GAGGTCACGTGGTATG,0.07
20,TCTGGCACGTGAGTAA,0.09
21,GGCGTCACGTGGTAGA,0.17
22,TTGCTCACGTGATGCT,0.41
23,TTGGTCACGTGTTATG,0.16
24,TATGTCACGTGCGCGG,-0.11
25,AAATTCACGTGCTGTT,0.26
26,GTATTCACGTGTTCGA,0.28

row,Sequence,relative binding free energy [kcal/mol]
1,CGGGTCACGTGAGCGG,0.28
2,TCTGGCACGTGTAATA,0.14
3,TATAACACGTGTGAGG,0.06
4,TGGCCCACGTGTTGGT,-0.04
5,GAGTTCACGTGTAGCG,0.35
6,TGTATCACGTGATGCG,0.26
7,TGCTACACGTGTTCGG,0.12
8,TGCTGCACGTGAGGGC,0.04
9,GTGTTCACGTGCAGCT,0.31
10,CGGAGCACGTGGAGCG,-0.07
11,TATAGCACGTGTGTTT,-0.06
12,CGGGGCACGTGGTAGA,-0.08
13,TTGAGCACGTGTATGC,-0.01
14,CGTGTCACGTGGGTGT,0.04
15,ATGTGCACGTGCGGGA,-0.04
16,TTTGGCACGTGAGGAT,0.16
17,TTTGTCACGTGAGTAT,0.31
18,AAGGTCACGTGAATTG,0.19
19,GGTCTCACGTGTGGAT,0.24
20,GAGGGCACGTGCATGG,-0.16
21,ATTTGCACGTGTGGTG,0.14
22,CTGTTCACGTGTAGTG,0.15
23,TGGGGCACGTGTGCCT,-0.06
24,AGGTTCACGTGACTGG,0.27
25,GTATTCACGTGTTACT,0.19
26,TATTGCACGTGGAGAG,-0.1

row,Sequence,relative binding free energy [kcal/mol]
1,TTATTCACGTGGTATA,0.23
2,TGTGTCACGTGATTGC,-0.02
3,TCTATCACGTGAGGTT,0.35
4,AAGGTCACGTGTTGAT,0.08
5,TGTTTCACGTGCATAG,0.21
6,GTGACCACGTGCGTTG,0.03
7,GGTGGCACGTGGGTAA,-0.18
8,TTTTACACGTGAGTTC,0.28
9,GATGACACGTGTTTTG,0.01
10,GGGATCACGTGACGGT,0.3
11,GTAAGCACGTGGGGTT,-0.2
12,TTAATCACGTGTCGGT,0.13
13,TGAATCACGTGATAGT,0.2
14,GAAATCACGTGTGGGG,0.23
15,TATAGCACGTGTTCAT,-0.14
16,GGCTTCACGTGTTCGG,0.29
17,GTGGTCACGTGTTTTA,0.16
18,GGACGCACGTGTGTAT,0.02
19,ATGGTCACGTGTATCA,0.17
20,AGGATCACGTGGTCGT,0.02
21,TTCGACACGTGGCAGG,0.1
22,GGCTGCACGTGGATAT,0.14
23,GTTCTCACGTGAGGAG,0.33
24,ACTTGCACGTGTATTG,0.04
25,TTAAGCACGTGGCGTT,-0.08
26,CGCGTCACGTGTAGGG,-0.12

row,Sequence,relative binding free energy [kcal/mol]
1,TTTAACACGTGTAGAT,0.31
2,GTGAACACGTGGTCGG,-0.01
3,TGTTTCACGTGCACAG,0.36
4,GGATTCACGTGTTTGT,0.41
5,TTTCTCACGTGATAGG,0.23
6,TAATGCACGTGTATGA,0.05
7,TGTTACACGTGCGCGG,0.1
8,CCGTTCACGTGTGGTG,0.24
9,ACATGCACGTGGGGGT,-0.24
10,TGTAACACGTGATGAT,0.09
11,ATCGGCACGTGGGCGT,-0.18
12,ATATGCACGTGGGCGG,-0.24
13,ATTATCACGTGGTGGA,0.01
14,GATTCCACGTGTGGTT,0.27
15,CTGTGCACGTGGGTAC,-0.09
16,AGTAGCACGTGGGGTT,-0.19
17,ATGTGCACGTGGTCGA,-0.17
18,CTTGGCACGTGCGATT,-0.03
19,GGCAACACGTGGGGGT,-0.02
20,TGTTTCACGTGTTCCT,0.28
21,ATGTACACGTGAAGTT,0.35
22,ATAGTCACGTGTAGAA,0.15
